Source: the supplement of paper PMC8728848
Some of the results follow.

How the values were obtained:
Experiment in all cases: glycan array binding signal (z-score within array); higher = stronger binding
Conditions in all cases: glycan notation: IUPAC condensed, linker removed
[1] = molecular target: Neu5Ac(a2-3)Gal(b1-3)GalNAc
Procedure, shortened: (§1)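 The binding signal is a Z-score computed within each array and averaged over linkers. Arrays of the same protein sequence at different concentrations or buffers were also averaged together. Data originate from 3228 arrays in the Consortium for Functional Glycomics database, kept only where the protein sequence was available.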

[2] = molecular target: Neu5Ac(a2-3)Gal(b1-3)GalNAc(b1-3)Gal(a1-4)Gal(b1-4)Glc
Procedure, shortened: as §1

[3] = molecular target: Neu5Ac(a2-3)Gal(b1-3)GalNAc(b1-4)[Neu5Ac(a2-3)]Gal(b1-4)Glc
Procedure, shortened: as §1

[4] = molecular target: Neu5Ac(a2-3)Gal(b1-3)GalNAc(b1-4)[Neu5Ac(a2-8)Neu5Ac(a2-3)]Gal(b1-4)Glc
Procedure, shortened: as §1

[5] = molecular target: Neu5Ac(a2-3)Gal(b1-3)GalNAc6S
Procedure, shortened: as §1

[6] = molecular target: Neu5Ac(a2-3)Gal(b1-3)GlcNAc
Procedure, shortened: as §1

[7] = molecular target: Neu5Ac(a2-3)Gal(b1-3)GlcNAc(b1-2)Man
Procedure, shortened: as §1

[8] = molecular target: Neu5Ac(a2-3)Gal(b1-3)GlcNAc(b1-2)Man(a1-3)[GlcNAc(b1-4)][Neu5Ac(a2-3)Gal(b1-3)GlcNAc(b1-2)Man(a1-6)]Man(b1-4)GlcNAc(b1-4)GlcNAc
Procedure, shortened: as §1

[9] = molecular target: Neu5Ac(a2-3)Gal(b1-3)GlcNAc(b1-2)Man(a1-3)[Neu5Ac(a2-3)Gal(b1-3)GlcNAc(b1-2)Man(a1-6)]Man(b1-4)GlcNAc(b1-4)GlcNAc
Procedure, shortened: as §1

[10] = molecular target: Neu5Ac(a2-3)Gal(b1-3)GlcNAc(b1-3)Gal(b1-3)GlcNAc
Procedure, shortened: as §1

[11] = molecular target: Neu5Ac(a2-3)Gal(b1-3)GlcNAc(b1-3)Gal(b1-4)GlcNAc
Procedure, shortened: as §1

[12] = molecular target: Neu5Ac(a2-3)Gal(b1-3)GlcNAc(b1-3)GalNAc
Procedure, shortened: as §1

[13] = molecular target: Neu5Ac(a2-3)Gal(b1-3)GlcNAc(b1-4)Gal(b1-4)Glc
Procedure, shortened: as §1

[14] = molecular target: Neu5Ac(a2-3)Gal(b1-3)GlcNAc(b1-6)GalNAc
Procedure, shortened: as §1

[15] = molecular target: Neu5Ac(a2-3)Gal(b1-3)GlcNAc6S
Procedure, shortened: as §1

[16] = molecular target: Neu5Ac(a2-3)Gal(b1-3)[Fuc(a1-4)]GlcNAc
Procedure, shortened: as §1

[17] = molecular target: Neu5Ac(a2-3)Gal(b1-3)[Fuc(a1-4)]GlcNAc(b1-3)Gal(b1-3)[Fuc(a1-4)]GlcNAc
Procedure, shortened: as §1

[18] = molecular target: Neu5Ac(a2-3)Gal(b1-3)[Fuc(a1-4)]GlcNAc(b1-3)Gal(b1-4)[Fuc(a1-3)]GlcNAc
Procedure, shortened: as §1

[19] = molecular target: Neu5Ac(a2-3)Gal(b1-3)[GlcNAc(b1-6)]GalNAc
Procedure, shortened: as §1

[20] = molecular target: Neu5Ac(a2-3)Gal(b1-3)[Neu5Ac(a2-6)]GalNAc
Procedure, shortened: as §1

[21] = molecular target: Neu5Ac(a2-3)Gal(b1-3)[Neu5Ac(a2-6)]GlcNAc(b1-3)[Fuc(a1-3)[Gal(b1-4)]GlcNAc(b1-6)]Gal(b1-4)Glc
Procedure, shortened: as §1

[22] = molecular target: Neu5Ac(a2-3)Gal(b1-3)]Neu5Ac(a2-3)Gal(b1-4)]GlcNAc
Procedure, shortened: as §1

Neu5Ac(a2-3)Gal(b1-4)Glc = molecular target: Neu5Ac(a2-3)Gal(b1-4)Glc
Procedure, shortened: as §1

[23] = molecular target: Neu5Ac(a2-3)Gal(b1-4)GlcNAc
Procedure, shortened: as §1

[24] = molecular target: Neu5Ac(a2-3)Gal(b1-4)GlcNAc(b1-2)Man
Procedure, shortened: as §1

[25] = molecular target: Neu5Ac(a2-3)Gal(b1-4)GlcNAc(b1-2)Man(a1-3)[GlcNAc(b1-4)][Neu5Ac(a2-3)Gal(b1-4)GlcNAc(b1-2)Man(a1-6)]Man(b1-4)GlcNAc(b1-4)GlcNAc
Procedure, shortened: as §1

[26] = molecular target: Neu5Ac(a2-3)Gal(b1-4)GlcNAc(b1-2)Man(a1-3)[Neu5Ac(a2-3)Gal(b1-4)GlcNAc(b1-2)Man(a1-6)]Man(b1-4)GlcNAc(b1-4)GlcNAc
Procedure, shortened: as §1

[27] = molecular target: Neu5Ac(a2-3)Gal(b1-4)GlcNAc(b1-2)Man(a1-3)[Neu5Ac(a2-3)Gal(b1-4)GlcNAc(b1-2)Man(a1-6)]Man(b1-4)GlcNAc(b1-4)[Fuc(a1-6)]GlcNAc
Procedure, shortened: as §1

[28] = molecular target: Neu5Ac(a2-3)Gal(b1-4)GlcNAc(b1-2)Man(a1-3)[Neu5Ac(a2-6)Gal(b1-4)GlcNAc(b1-2)Man(a1-6)]Man(b1-4)GlcNAc(b1-4)GlcNAc
Procedure, shortened: as §1

[29] = molecular target: Neu5Ac(a2-3)Gal(b1-4)GlcNAc(b1-2)[Neu5Ac(a2-3)Gal(b1-4)GlcNAc(b1-4)]Man(a1-3)[GlcNAc(b1-4)][Neu5Ac(a2-3)Gal(b1-4)GlcNAc(b1-2)[Neu5Ac(a2-3)Gal(b1-4)GlcNAc(b1-6)]Man(a1-6)]Man(b1-4)GlcNAc(b1-4)GlcNAc
Procedure, shortened: as §1

[30] = molecular target: Neu5Ac(a2-3)Gal(b1-4)GlcNAc(b1-2)[Neu5Ac(a2-3)Gal(b1-4)GlcNAc(b1-4)]Man(a1-3)[GlcNAc(b1-4)][Neu5Ac(a2-3)Gal(b1-4)GlcNAc(b1-4)Man(a1-6)]Man(b1-4)GlcNAc(b1-4)GlcNAc
Procedure, shortened: as §1

[31] = molecular target: Neu5Ac(a2-3)Gal(b1-4)GlcNAc(b1-2)[Neu5Ac(a2-3)Gal(b1-4)GlcNAc(b1-6)]Man(a1-6)[Neu5Ac(a2-3)Gal(b1-4)GlcNAc(b1-2)Man(a1-3)]Man(b1-4)GlcNAc(b1-4)GlcNAc
Procedure, shortened: as §1

[32] = molecular target: Neu5Ac(a2-3)Gal(b1-4)GlcNAc(b1-2)[Neu5Ac(a2-3)Gal(b1-4)GlcNAc(b1-6)]Man(a1-6)[Neu5Ac(a2-3)Gal(b1-4)GlcNAc(b1-2)Man(a1-3)][GlcNAc(b1-4)]Man(b1-4)GlcNAc(b1-4)GlcNAc
Procedure, shortened: as §1

[33] = molecular target: Neu5Ac(a2-3)Gal(b1-4)GlcNAc(b1-3)Gal
Procedure, shortened: as §1

[34] = molecular target: Neu5Ac(a2-3)Gal(b1-4)GlcNAc(b1-3)Gal(b1-3)GlcNAc
Procedure, shortened: as §1

[35] = molecular target: Neu5Ac(a2-3)Gal(b1-4)GlcNAc(b1-3)Gal(b1-4)GlcNAc
Procedure, shortened: as §1

[36] = molecular target: Neu5Ac(a2-3)Gal(b1-4)GlcNAc(b1-3)Gal(b1-4)GlcNAc(b1-2)Man(a1-3)[Neu5Ac(a2-3)Gal(b1-4)GlcNAc(b1-3)Gal(b1-4)GlcNAc(b1-2)Man(a1-6)]Man(b1-4)GlcNAc(b1-4)GlcNAc
Procedure, shortened: as §1

[37] = molecular target: Neu5Ac(a2-3)Gal(b1-4)GlcNAc(b1-3)Gal(b1-4)GlcNAc(b1-3)Gal(b1-4)GlcNAc
Procedure, shortened: as §1

[38] = molecular target: Neu5Ac(a2-3)Gal(b1-4)GlcNAc(b1-3)Gal(b1-4)GlcNAc(b1-3)Gal(b1-4)GlcNAc(b1-2)Man(a1-3)[Neu5Ac(a2-3)Gal(b1-4)GlcNAc(b1-3)Gal(b1-4)GlcNAc(b1-3)Gal(b1-4)GlcNAc(b1-2)Man(a1-6)]GalNAc
Procedure, shortened: as §1

[39] = molecular target: Neu5Ac(a2-3)Gal(b1-4)GlcNAc(b1-3)Gal(b1-4)GlcNAc(b1-3)GalNAc
Procedure, shortened: as §1

[40] = molecular target: Neu5Ac(a2-3)Gal(b1-4)GlcNAc(b1-3)Gal(b1-4)GlcNAc(b1-3)[Neu5Ac(a2-3)Gal(b1-4)GlcNAc(b1-3)Gal(b1-4)GlcNAc(b1-6)]GalNAc
Procedure, shortened: as §1

[41] = molecular target: Neu5Ac(a2-3)Gal(b1-4)GlcNAc(b1-3)Gal(b1-4)GlcNAc(b1-6)[Gal(b1-3)]GalNAc
Procedure, shortened: as §1

[42] = molecular target: Neu5Ac(a2-3)Gal(b1-4)GlcNAc(b1-3)Gal(b1-4)[Fuc(a1-3)]GlcNAc
Procedure, shortened: as §1

[43] = molecular target: Neu5Ac(a2-3)Gal(b1-4)GlcNAc(b1-3)GalNAc
Procedure, shortened: as §1

[44] = molecular target: Neu5Ac(a2-3)Gal(b1-4)GlcNAc(b1-3)[Neu5Ac(a2-3)Gal(b1-4)GlcNAc(b1-6)]GalNAc
Procedure, shortened: as §1

B1: CLECb-Precomplexed (Mus musculus), P43025 (protein)
chain: MAKNGLVLCILVVSLLLDQTDGYPSRMKARKHSKRRVKAKDDDLKSQVEKLWREVNALKEMQALQTVCLRGTKVHKKCYLASEGLKHYHEANEDCISKGGTLVVPRNSDEINALRDYGKRSLPGVNDFWLGINDMVTEGKFLDVHGFAVSFLNWDRAQPSGGKRENCVLFSQSAQGKWSDEACRSSKRYICEFIIPTRTRPLEQKLISEEDLAANDILDYKDDDDKV
B1 was tested. Which “glycan array binding signal (z-score)” value [1] did it give?
Its value is -0.408.

What about the “glycan array binding signal (z-score)” value [2] of the same binder?
The value was -0.16.

What about the “glycan array binding signal (z-score)” value [3] of the same binder?
Its value is -0.411.

What about the “glycan array binding signal (z-score)” value [4] of the same binder?
The value was -0.49.

And the “glycan array binding signal (z-score)” value [5]?
Its value is -0.046.

What about the “glycan array binding signal (z-score)” value [6] of the same binder?
The value was -0.576.

What about the “glycan array binding signal (z-score)” value [7] of the same binder?
The value was -0.413.

And the “glycan array binding signal (z-score)” value [8]?
Its value is -0.444.

And the “glycan array binding signal (z-score)” value [9]?
The value was -0.038.

What about the “glycan array binding signal (z-score)” value [10] of the same binder?
The value was -0.296.

And the “glycan array binding signal (z-score)” value [11]?
Its value is -0.05.

What about the “glycan array binding signal (z-score)” value [12] of the same binder?
The value was 0.041.

What about the “glycan array binding signal (z-score)” value [13] of the same binder?
Its value is -0.678.

What about the “glycan array binding signal (z-score)” value [14] of the same binder?
Its value is 1.23.

And the “glycan array binding signal (z-score)” value [15]?
Its value is 0.185.

What about the “glycan array binding signal (z-score)” value [16] of the same binder?
The value was -0.368.

What about the “glycan array binding signal (z-score)” value [17] of the same binder?
Its value is -0.228.

What about the “glycan array binding signal (z-score)” value [18] of the same binder?
The value was 0.002.

What about the “glycan array binding signal (z-score)” value [19] of the same binder?
The value was -0.081.

And the “glycan array binding signal (z-score)” value [20]?
Its value is 0.297.

What about the “glycan array binding signal (z-score)” value [21] of the same binder?
The value was -0.391.

And the “glycan array binding signal (z-score)” value [22]?
Its value is -0.543.

And the “glycan array binding signal (z-score)” value (Neu5Ac(a2-3)Gal(b1-4)Glc)?
Its value is -0.295.

What about the “glycan array binding signal (z-score)” value [23] of the same binder?
Its value is -0.249.

What about the “glycan array binding signal (z-score)” value [24] of the same binder?
Its value is -0.548.

What about the “glycan array binding signal (z-score)” value [25] of the same binder?
Its value is -0.227.

What about the “glycan array binding signal (z-score)” value [26] of the same binder?
Its value is -0.195.

What about the “glycan array binding signal (z-score)” value [27] of the same binder?
The value was -0.424.

And the “glycan array binding signal (z-score)” value [28]?
The value was -0.245.

And the “glycan array binding signal (z-score)” value [29]?
The value was 0.227.

And the “glycan array binding signal (z-score)” value [30]?
The value was -0.337.

And the “glycan array binding signal (z-score)” value [31]?
The value was 0.667.

And the “glycan array binding signal (z-score)” value [32]?
Its value is 0.259.

And the “glycan array binding signal (z-score)” value [33]?
Its value is 0.468.

What about the “glycan array binding signal (z-score)” value [34] of the same binder?
Its value is -0.436.

And the “glycan array binding signal (z-score)” value [35]?
The value was -0.359.

What about the “glycan array binding signal (z-score)” value [36] of the same binder?
Its value is -0.068.

What about the “glycan array binding signal (z-score)” value [37] of the same binder?
Its value is 0.135.

And the “glycan array binding signal (z-score)” value [38]?
The value was 1.63.

What about the “glycan array binding signal (z-score)” value [39] of the same binder?
The value was 0.009.

And the “glycan array binding signal (z-score)” value [40]?
Its value is -0.181.

What about the “glycan array binding signal (z-score)” value [41] of the same binder?
The value was -0.553.

What about the “glycan array binding signal (z-score)” value [42] of the same binder?
Its value is -0.288.

What about the “glycan array binding signal (z-score)” value [43] of the same binder?
The value was -0.255.

And the “glycan array binding signal (z-score)” value [44]?
Its value is 0.126.
